Assay results as given in US12528864 (GlaxoSmithKline, dated 2026).

Experiments:
[1] = molecular target: T1, human CD96v2 expressed on cells (CHO cells; transiently transfected HEK cells) (human, UniProt P40200-2 22-569); test: flow cytometry on CHO cells expressing human CD96v2
T1 construct: whole, on cells; the cell is named under assay; also called CHO-huCD96; hCD96v2
T1 sequence (looked up): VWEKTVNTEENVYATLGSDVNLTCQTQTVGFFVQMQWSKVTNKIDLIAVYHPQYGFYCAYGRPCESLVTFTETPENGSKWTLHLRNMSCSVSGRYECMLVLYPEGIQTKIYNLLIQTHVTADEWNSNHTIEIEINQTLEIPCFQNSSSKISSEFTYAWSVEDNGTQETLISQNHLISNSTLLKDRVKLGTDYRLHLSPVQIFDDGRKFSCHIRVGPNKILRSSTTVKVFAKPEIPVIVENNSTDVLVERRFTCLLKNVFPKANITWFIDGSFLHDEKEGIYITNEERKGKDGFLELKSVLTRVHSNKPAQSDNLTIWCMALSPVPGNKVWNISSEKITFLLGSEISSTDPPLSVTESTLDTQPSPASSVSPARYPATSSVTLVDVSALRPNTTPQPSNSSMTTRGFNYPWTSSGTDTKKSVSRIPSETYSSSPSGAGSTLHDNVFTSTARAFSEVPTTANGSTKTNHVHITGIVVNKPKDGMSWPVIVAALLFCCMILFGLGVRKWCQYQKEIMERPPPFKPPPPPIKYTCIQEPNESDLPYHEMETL

[2] = molecular target: T2, cynomolgus monkey CD96v2 expressed on cells (CHO cells; transiently transfected HEK cells) (cynomolgus monkey, UniProt A0A2K5TWV6 22-569); test: flow cytometry on CHO cells expressing cynomolgus CD96v2
T2 construct: the cell is named under assay; also called CHO-cyCD96; Cyno CD96v2
T2 sequence: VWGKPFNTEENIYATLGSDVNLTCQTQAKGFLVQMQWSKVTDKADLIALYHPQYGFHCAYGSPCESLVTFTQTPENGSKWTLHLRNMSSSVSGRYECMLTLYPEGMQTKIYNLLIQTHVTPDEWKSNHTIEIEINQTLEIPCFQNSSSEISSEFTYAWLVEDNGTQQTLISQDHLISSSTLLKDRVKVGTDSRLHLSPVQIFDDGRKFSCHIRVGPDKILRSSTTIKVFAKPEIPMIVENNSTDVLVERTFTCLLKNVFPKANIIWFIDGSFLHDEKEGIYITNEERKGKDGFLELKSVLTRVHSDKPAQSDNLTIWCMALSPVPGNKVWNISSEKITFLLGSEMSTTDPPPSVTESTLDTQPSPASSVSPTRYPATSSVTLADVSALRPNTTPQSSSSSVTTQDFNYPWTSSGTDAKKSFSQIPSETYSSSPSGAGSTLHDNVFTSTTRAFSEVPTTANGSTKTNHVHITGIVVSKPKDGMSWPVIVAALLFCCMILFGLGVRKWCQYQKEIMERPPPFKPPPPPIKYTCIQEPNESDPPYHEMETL

[3] = molecular target: T1, human CD96v2 expressed on cells (CHO …); test: flow cytometry, inhibition of human CD155-Fc-AF647 binding to CHO cells expressing human CD96v2; competitor CD155-Fc

B1: 42Y073-86F04-23 (antibody)
heavy: QVQLVQSGAEVKKPGSSVKVSCKASGGTFSGYPISWVRQAPGQGLEWMGGIIPIMGTARYAQKFQGRVTITADESTSTAYMELSSLRSEDTAVYYCARLLGESGMDVWGQGTTVTVSS[letters of human IgG1 constant region omitted]
light: DIQMTQSPSSLSASVGDRVTITCRASQSISSYLNWYQQKPGKAPKLLIYAASSLQSGVPSRFSGSGSGTDFTLTISSLQPEDFATYYCQQPYFSPPTFGGGTKVEIKRTVAAPSVFIFPPSDEQLKSGTASVVCLLNNFYPREAKVQWKVDNALQSGNSQESVTEQDSKDSTYSLSSTLTLSKADYEKHKVYACEVTHQGLSSPVTKSFNRGEC
Question: For B1, which EC50 [1] is on record?
Answer: 0.06 nM

Question: And the EC50 [2]?
Answer: 0.03 nM

Question: And the IC50 [3]?
Answer: 0.76 nM
